PubChem BioAssay AID624417 (National Center for Advancing Translational Sciences (NCATS), 2012)
“And” between values parts separate entries of the source, which are not always exact repeats. Identical values can stand only once. The whole screen tested about 410,000 compounds, of which about 6,400 (1.6%) were called active. This list was built around the results that the source calls inconclusive (neither active nor inactive); the mix of calls is not that of the screen. Calls come from the whole dose curve; as a rule, active = well fitted inhibition curve with a large enough effect; inconclusive = small, poorly fitted or top-dose-only effect; inactive = no such curve, though single readings can be large or run the other way. A potency beside an inconclusive call is a rough fit, not a confirmed value.

Molecular target: Glucagon-like peptide 1 receptor (Homo sapiens) (UniProt P43220)
Test: qHTS of GLP-1 Receptor Inverse Agonists (Inhibition Mode); note: nearly all actives have a fitted effect of over 55% in size
Details: HEK293 GLP-1R CRE-luciferase, luminescence, 24 h, GLP-1R form is constitutively active; activity change, negative = inhibition: at 38.3 µM (top of the series) unless noted
Outline: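 HEK293 cells stably co-expressing constitutively active GLP-1R and a cAMP-responsive luciferase reporter were seeded in DMEM with 10% Nu serum, given compounds after 12 h, and incubated 24 h at 37 deg C. Luminescence was then read.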
% is set by controls: 0 for no effect and ±100 for the full control effect; potency is the fitted concentration of half-maximal effect; tags give direction and shape of the fitted curve.

UniProt P43220, sequence (P43220 whole entry, looked up): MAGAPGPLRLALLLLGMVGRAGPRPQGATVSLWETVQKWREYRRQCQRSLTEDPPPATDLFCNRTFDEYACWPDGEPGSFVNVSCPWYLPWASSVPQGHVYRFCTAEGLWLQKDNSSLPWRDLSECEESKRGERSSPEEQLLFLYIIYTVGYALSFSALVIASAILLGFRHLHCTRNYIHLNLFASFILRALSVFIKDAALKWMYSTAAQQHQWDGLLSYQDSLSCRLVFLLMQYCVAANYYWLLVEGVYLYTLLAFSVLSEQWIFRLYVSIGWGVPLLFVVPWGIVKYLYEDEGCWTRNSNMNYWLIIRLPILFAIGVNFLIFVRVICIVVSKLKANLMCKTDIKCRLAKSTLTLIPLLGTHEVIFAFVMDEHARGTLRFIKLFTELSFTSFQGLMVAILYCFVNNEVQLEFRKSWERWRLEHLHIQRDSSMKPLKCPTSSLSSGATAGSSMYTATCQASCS

Row | Structure (SMILES) | activity change, negative = inhibition | Potency
1 | CCCN1CCN(S(=O)(=O)c2ccc3c(c2)NC(=O)C(C)S3)CC1 (stereo not given) | inactive: -20.5% | –
2 | CC(Cc1ccccc1)NC(=S)CN1CCCC1=S (stereo not given) | – | inconclusive: 12.6 µM [inhibitor, single point]
3 | COc1cccc2sc(N(CCCN(C)C)C(=O)c3ccc(S(=O)(=O)N4CCc5ccccc5C4)cc3)nc12 | – | inconclusive: 11.2 µM [inhibitor, single point]
4 | Cc1ccc(C)c(OCC(=O)Nc2sc3c(c2C#N)CCCC3)c1C | – | inconclusive: 1.58 µM [inhibitor, partial curve, poor fit]
5 | CCC1CCCCN1CCCNC(=O)c1ccc2c(c1)c(C)c(C)n2CC (stereo not given) | – | inconclusive: 11.2 µM [inhibitor, partial curve, poor fit] and inconclusive: 10 µM [inhibitor, partial curve, poor fit]
6 | C/C(=N/NC(=O)CNC(=O)c1ccco1)c1ccco1 | inactive: 3.23% | –
7 | CC(=O)NC(C)(c1ccccc1)c1nc(/C=C/c2ccccc2)cs1 (stereo not given) | – | inconclusive: 28.2 µM [inhibitor, single point]
8 | Cc1cc(C)cc(OCC(=O)O/N=C(\N)c2ccccc2Cl)c1 | – | inconclusive: 22.4 µM [inhibitor, single point]
9 | Cc1ccc(N2CCN(C(=O)c3cc(C(=O)c4ccccc4C)c[nH]3)CC2)c(C)c1 | – | inconclusive: 17.8 µM [inhibitor, partial curve, poor fit]
10 | CCCCCC(C(=O)O)C(C)CC(=O)NC1CCCCC1 (stereo not given) | inactive: 0.95% | –
11 | c1ccc(CC2CCN(C3=Nc4cccc5cccc3c45)CC2)cc1 | – | inconclusive: 6.31 µM [inhibitor, partial curve, poor fit]
12 | CCN1CCc2c(C#N)c(N3CCCCC3)nc(NCc3ccccc3)c2C1 | – | inconclusive: 11.2 µM [inhibitor, partial curve, poor fit]
13 | Cc1cc(C)nc(SC2CC(=O)N(c3ccc(Cl)cc3)C2=O)n1 (stereo not given) | inactive: -4.42% | –
14 | COc1cccc(C2CC(c3ccc(C)cc3)=NN2C(=O)c2ccccc2F)c1OC (stereo not given) | – | inconclusive: 10 µM [inhibitor, single point]
15 | O=C(CCNC(=O)C1CCN(S(=O)(=O)c2ccccc2)CC1)NCCc1ccc(Cl)cc1 | – | inconclusive: 4.47 µM [inhibitor, full curve]
16 | Cc1ccc(C)c(NC(=O)c2ccccc2NS(=O)(=O)c2cc([N+](=O)[O-])ccc2C)c1 | – | inconclusive: 3.16 µM [inhibitor, partial curve, poor fit]
17 | Cc1ccccc1CN1CCN(S(=O)(=O)c2ccc(Cl)s2)CC1 | – | active: 10 µM
18 | CCOc1ccc(-c2nc(CN3CCCCC3CCn3cccn3)c(C)o2)cc1 (stereo not given) | – | inconclusive: 12.6 µM [inhibitor, partial curve, poor fit]
19 | CC(C)n1c(=O)c2ccccc2n1Cc1cn(-c2ccccc2)nn1 | inactive: 1.43% | –
20 | Cc1ccc(NC(=O)C(=O)NC2CCCCC2)cc1 | inactive: 17.4% | –
21 | O=C1CCN(CCc2ccccc2)CCN1CCSc1ccccc1 | – | inconclusive: 11.2 µM [inhibitor, single point]
22 | CCNC(=O)C1CCCN(C(=O)c2cc(OC)c(OC)c(OC)c2)CC1 (stereo not given) | inactive: 13.2% | –

Row | Structure (SMILES) | activity change, negative = inhibition | Potency
23 | Cc1coc2cc3oc(=O)c4c(c3cc12)CCCC4 | inactive: 0% | –
24 | CC1=C(c2ccc(C)c(C)c2)S(=O)(=O)N(Cc2ccc(C(=O)NCc3ccccc3F)cc2)C1=O | inactive: 5.91% | –
25 | O=C1CCCN1CCCNc1nc(NCc2cccs2)nc2ccsc12 | inactive: -28% | –
26 | COc1ccc(CCC(C)NCC(C)c2ccccc2)cc1 (stereo not given) | – | inconclusive: 12.6 µM [inhibitor, single point]
27 | O=C(Nc1cccnc1)Nc1cccc([N+](=O)[O-])c1 | – | inconclusive: 28.2 µM [inhibitor, single point]
28 | Cc1cc(C)cc(NC(=O)Cn2nnc(-c3ccccc3F)n2)c1 | inactive: -17.5% | –
29 | CC(CN1CCC(n2nccc2NC(=O)CCCc2ccccc2)CC1)c1ccccc1 (stereo not given) | – | inconclusive: 28.2 µM [inhibitor, single point]
30 | COc1cccc(NC(=O)Nc2ccc(Cc3ccncc3)cc2)c1 | – | inconclusive: 12.6 µM [inhibitor, partial curve]
31 | Cc1ccc(CNC(=O)c2cn(C3CCCCC3)c(=O)c3c2c2ccccc2n3C)o1 | inactive: -16% | –
32 | CCn1c(=NC(=O)CSC(C)=O)sc2ccccc21 | – | inconclusive: 28.2 µM [inhibitor, single point]
33 | CC1(C)C2CCC(C2)C1(C)NC(=O)CN1CCN(Cc2ccccc2)CC1 (stereo not given) | – | inconclusive: 10 µM [inhibitor, partial curve, poor fit]
34 | CCCCN1Cc2cc(C(=O)c3cc(F)ccc3O)cnc2NC1=O | – | inconclusive: 22.4 µM [inhibitor, single point]
35 | COc1ccccc1NS(=O)(=O)c1ccc(-c2cnc(C3CC3)o2)cc1 | – | inconclusive: 1.12 µM [inhibitor, full curve, poor fit]
36 | O=C1Nc2ccccc2/C1=C\C(=O)c1ccccc1 | – | inconclusive: 4.47 µM [inhibitor, partial curve]
37 | O=C1C(Cl)=C(N2CCC(C(=O)O)CC2)C(=O)c2ccccc21 | inactive: 66.6% | –
38 | CCOC(CNCc1cc(C)c2[nH]c3ccccc3c2c1C)OCC | – | inconclusive: 25.1 µM [inhibitor, single point]
39 | CCn1c(=O)c(C(=O)CN2c3ccccc3CC2C)c(N)n(Cc2ccccc2)c1=O (stereo not given) | – | inconclusive: 2.24 µM [inhibitor, partial curve, poor fit]
40 | Oc1ccc(N2CCN(C(=S)NCCc3ccccc3)CC2)cc1 | – | inconclusive: 0.891 µM [inhibitor, full curve, poor fit]
41 | C=CCc1cc(Cl)ccc1OCCNCCOC | – | inconclusive: 7.94 µM [inhibitor, partial curve, poor fit]
42 | Cc1cccc(CN2CCC(n3nccc3NC(=O)CCCc3ccccc3)CC2)c1 | – | inconclusive: 14.1 µM [inhibitor, single point]
43 | O=c1c(O)c(-c2ccccc2)oc2ccccc12 | – | inconclusive: 7.94 µM [inhibitor, partial curve, poor fit]
44 | Nc1ccc(NC(=O)CCN2CCOCC2)cc1 | inactive: -15.2% | –

Row | Structure (SMILES) | activity change, negative = inhibition | Potency
45 | O=c1c2ccccc2[nH]c(=S)n1CC1CCCO1 (stereo not given) | inactive: 3.22% | –
46 | Cc1cc(C)nc(NN=C(c2ccccc2)c2ccccc2)n1 | – | inconclusive: 11.2 µM [inhibitor, partial curve, poor fit]
47 | COc1ccc(-c2c([C@H]3[C@H]4C=CC[C@@H](C)[C@@H]4C(=O)N3Cc3ccccc3)ccc3ccccc23)cc1 | – | inconclusive: 8.91 µM [inhibitor, partial curve, poor fit]
48 | Nn1c(Cc2cccc3ccccc23)nnc1SCn1nnc2ccccc2c1=O | – | inconclusive: 2.51 µM [inhibitor, full curve, poor fit]
49 | C/C(=N\NC(=O)CCCNc1ccc(C)cc1)c1ccccn1 | – | inconclusive: 28.2 µM [inhibitor, single point]
50 | CCn1cc(C(=O)N2CCCC(N3CCN(c4cccc(C(F)(F)F)c4)CC3)C2)cn1 (stereo not given) | – | inconclusive: 28.2 µM [inhibitor, single point]
51 | CCOc1cc(CNCCc2ccc(S(N)(=O)=O)cc2)ccc1OCc1ccccc1 | – | inconclusive: 28.2 µM [inhibitor, single point]
52 | CC1CCN(S(=O)(=O)c2ccc3nc(NCc4ccc(N(C)C)cc4)ccc3c2)CC1 | – | inconclusive: 7.08 µM [inhibitor, partial curve, poor fit]
53 | CCOc1ccc(Cl)cc1CSc1ncn[nH]1 | – | inconclusive: 28.2 µM [inhibitor, single point]
54 | CC1CC(C)CN(C(=O)COC(=O)Cc2ccc(Br)cc2)C1 (stereo not given) | – | inconclusive: 6.31 µM [inhibitor, partial curve]
55 | CCc1ccc(/C=N/NC(=O)c2cc(C3CC3)nc3ccccc23)s1 | – | inconclusive: 6.31 µM [inhibitor, partial curve, poor fit]
56 | CCOC(=O)c1c(C)[nH]c(C)c1S(=O)(=O)NC1CCN(C(=O)OCC)CC1 | inactive: 4.95% | –
57 | Cc1cc(N2CCN(c3ccccc3)CC2)nc(-c2ccccc2O)n1 | – | inconclusive: 28.2 µM [inhibitor, single point]
58 | Cc1ccc(C)c(N2CCN(C(=O)C3CCC(CNS(=O)(=O)c4cccs4)CC3)CC2)c1 (stereo not given) | – | inconclusive: 14.1 µM [inhibitor, single point]
59 | Cc1ccc(C)c(CC(=O)N2CCCCC2c2cc(C(=O)Nc3cccc(C#N)c3)no2)c1 (stereo not given) | – | inconclusive: 10 µM [inhibitor, partial curve, poor fit]
60 | O=C(Nc1cccc(C(F)(F)F)c1)OCc1ccncc1 | – | inconclusive: 22.4 µM [inhibitor, partial curve]
61 | CCCc1c(Cc2cccc(F)c2)ncn1Cc1cccc(-c2ccccc2)c1 | – | inconclusive: 11.2 µM [inhibitor, partial curve, poor fit]
62 | CC(C)C1C(=O)N(Cc2cn(CCC3OCCCO3)nn2)CCS(=O)(=O)N1Cc1ccc(-c2ccc(Cl)c(Cl)c2)cc1 (stereo not given) | – | inconclusive: 11.2 µM [inhibitor, partial curve, poor fit]
63 | Cc1nn(C)c(Oc2ccccc2)c1CCNC(=O)CCl | – | inconclusive: 10 µM [inhibitor, single point]
64 | CS(=O)(=O)c1ccccc1-c1nc(-c2ccc(C(F)(F)F)cc2)no1 | – | inconclusive: 28.2 µM [inhibitor, single point]
65 | CCC(C)(C)NCC(=O)Nc1ccc(OC(F)(F)F)cc1 | – | inconclusive: 31.6 µM [inhibitor, single point]
